Laboratory results published in the supplement of paper PMC3334620.
In all, about 33,000 sequences were measured (“E-score (-0.5 to 0.5)”: median about -0.012, highest 2% from about 0.29 on). The list shows a part of the results.

Target: T1, Ybr033w (UniProt P38073)
T1 sequence: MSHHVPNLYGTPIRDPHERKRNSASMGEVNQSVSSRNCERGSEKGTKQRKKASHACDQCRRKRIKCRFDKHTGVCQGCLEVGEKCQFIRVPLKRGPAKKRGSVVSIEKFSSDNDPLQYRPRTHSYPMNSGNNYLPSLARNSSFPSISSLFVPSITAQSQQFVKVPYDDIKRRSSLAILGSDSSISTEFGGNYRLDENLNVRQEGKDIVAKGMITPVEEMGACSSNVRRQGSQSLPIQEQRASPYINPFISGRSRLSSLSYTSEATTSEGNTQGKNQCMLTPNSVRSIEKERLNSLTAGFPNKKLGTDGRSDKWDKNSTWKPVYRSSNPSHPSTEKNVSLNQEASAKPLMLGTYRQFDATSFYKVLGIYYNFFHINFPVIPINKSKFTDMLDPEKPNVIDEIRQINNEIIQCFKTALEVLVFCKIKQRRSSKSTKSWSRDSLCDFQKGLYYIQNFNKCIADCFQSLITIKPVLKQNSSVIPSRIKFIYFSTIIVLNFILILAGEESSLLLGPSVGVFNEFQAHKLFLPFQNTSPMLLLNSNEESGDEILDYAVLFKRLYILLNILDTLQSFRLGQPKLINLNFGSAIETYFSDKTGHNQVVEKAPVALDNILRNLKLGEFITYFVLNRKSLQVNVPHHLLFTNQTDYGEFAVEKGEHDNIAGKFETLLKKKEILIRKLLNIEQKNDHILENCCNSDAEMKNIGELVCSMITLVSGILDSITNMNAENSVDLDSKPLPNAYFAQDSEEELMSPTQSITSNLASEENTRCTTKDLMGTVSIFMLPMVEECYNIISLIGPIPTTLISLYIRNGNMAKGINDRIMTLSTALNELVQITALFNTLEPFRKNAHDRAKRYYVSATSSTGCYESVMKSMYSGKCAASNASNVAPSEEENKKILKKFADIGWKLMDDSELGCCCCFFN
Test: PBM E-score (8-mer binding enrichment) (E-score (-0.5 to 0.5)); higher = stronger / more preferred TF binding; most listed sequences are background and not binding sites
Conditions: protein concentration: 200 nM; construct: GST-full length
Protocol: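 Universal 'all 10-mer' protein binding microarrays (Agilent AMADID 015681) probed with GST-tagged S. cerevisiae TFs (full-length or DBD) made by in vitro transcription/translation (PURExpress), about 100-200 nM. Bound TF was detected with fluorescent anti-GST. Each ungapped 8-mer (which stands for itself and its reverse complement) is scored by the PBM enrichment score (E-score), a modified Wilcoxon-Mann-Whitney statistic from -0.5 to +0.5, computed with the Universal PBM Analysis Suite. Scale: above 0.35 generally sequence-specific binding.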

Row | Sequence | PBM E-score
1 | ACTGCATA | 0.0795
2 | CACACTAA | 0.299
3 | AAGGGTGA | -0.162
4 | CCGTCTCC | -0.0669
5 | CAGGAGCG | -0.0857
6 | GTGAGCGA | -0.109
7 | AGGCTGAA | -0.068
8 | GACCGTGC | -0.265
9 | AGAGACCC | -0.153
10 | ACTCGTAT | 0.21
11 | CAGGCATA | -0.183
12 | GATAGCAC | -0.101
13 | GACTGCTC | -0.206
14 | TCCCACCA | -0.203
15 | GAAGCCGC | -0.225
16 | CGGAACAG | 0.127
17 | AAGTACGA | 0.00485
18 | GGGACGGA | -0.252
19 | AGTGCTCC | -0.213
20 | CGAACCAC | -0.13
21 | AACCGATT | 0.0995
22 | GTAAATCA | 0.225
23 | AAAATGTT | 0.224
24 | GCTGGACC | -0.178
25 | GAGTAATC | 0.132

Row | Sequence | PBM E-score
26 | ATGTATCA | 0.193
27 | AGAATCAG | 0.0763
28 | ACAGTAAA | 0.178
29 | AAGGGCAG | -0.151
30 | CGACTTAC | -0.0431
31 | GGATTGGA | 0.128
32 | GGCAATTA | 0.182
33 | GAGTGACC | -0.142
34 | ACGAGTGC | -0.0558
35 | ACTAAACC | 0.033
36 | CCCACCTA | -0.215
37 | ATCGGCTA | -0.00877
38 | TATAACGA | 0.157
39 | CAGAATCC | 0.0131
40 | CCGTTGAA | -0.0738
41 | CATATAGC | 0.119
42 | CGCCACCA | -0.206
43 | ATGGTTAC | 0.142
44 | GCGTAACC | -0.195
45 | GTCGCCAC | -0.25
46 | AAGTAAAC | 0.146
47 | ATGGATAC | 0.106
48 | AAACAAAG | 0.118
49 | TCTGGTAA | 0.133
50 | CCACACCA | 0.109

Row | Sequence | PBM E-score
51 | GAGAGGCA | -0.245
52 | AGGCACCG | -0.199
53 | AGAACTCT | 0.0753
54 | GTACCGAC | -0.275
55 | CGTGGCAA | -0.182
56 | TCATTTAA | 0.121
57 | CGATAGTC | 0.0638
58 | ATACCGGC | -0.0263
59 | CTGTTTAA | 0.145
60 | AATCGCAA | 0.186
61 | TAAGCTAA | 0.16
62 | AGTACGGG | -0.0131
63 | CACATCTG | -0.129
64 | CTTTCGGC | -0.167
65 | CCTTCGTA | -0.0832
66 | CTCTTCCA | 0.0449
67 | ACATTATA | 0.148
68 | GCTAATAC | 0.146
69 | CACGGGGA | -0.121
70 | ATTACAAG | 0.18
71 | GACAAGTC | -0.0919
72 | ATGAATCA | 0.147
73 | ATAACGGG | 0.0594
74 | TTGATAAA | 0.368
75 | CCGTATCA | -0.107

Row | Sequence | PBM E-score
76 | CAGCGAAA | -0.0299
77 | AGGACGCC | -0.202
78 | CTAATCAA | 0.23
79 | CGTCTAAC | -0.142
80 | ATTAAGGC | 0.147
81 | CACTTTAC | 0.122
82 | ATGGGGTG | -0.195
83 | GGTTACGA | -0.0794
84 | GTGGCCTA | -0.276
85 | CCCTTTCA | -0.19
86 | GGTCCCAC | -0.279
87 | GGGTGGCA | -0.141
88 | CCAGGCGG | -0.17
89 | CGACCCGA | -0.239
90 | AAGAATGT | 0.104
91 | AGACGCGC | -0.107
92 | AGGTCGAA | -0.168
93 | CTGCAGGA | 0.103
94 | CATACACG | 0.0375
95 | CCATAAAC | -0.0866
96 | GTAAGCGA | 0.145
97 | AGGCGGTA | -0.204
98 | CGAGCTCA | -0.192
99 | CAGGTAAG | -0.121
100 | AATAGCGT | 0.216

Row | Sequence | PBM E-score
101 | GAATGACA | 0.0228
102 | TCCGAGAA | 0.142
103 | ATTGCATA | 0.202
104 | ATGATGCA | 0.146
105 | AACACGAG | -0.00719
106 | CCGCAGAG | -0.281
107 | AAGCATGG | -0.18
108 | ACACAAAT | 0.185
109 | AGCTAACC | -0.123
110 | ACTGATAT | 0.0341
111 | CGCTACCC | -0.0713
112 | CAACACTG | -0.031
113 | CGGCGATA | 0.048
114 | AGTACAAA | 0.114
115 | CGTTCAGA | -0.0779
116 | AAACTGCC | 0.151
117 | CGATAACA | 0.154
118 | GCTACACC | -0.2
119 | ACACGCGG | -0.012
120 | ATATAGCA | 0.138
121 | CAAACCAA | 0.0461
122 | ACATGTAG | 0.194
123 | GCCTGGAA | 0.009
124 | GATCGGAC | 0.129
125 | GTTACCCA | -0.119

Row | Sequence | PBM E-score
126 | AGGTGGTC | -0.117
127 | ATATGCAC | 0.183
128 | ATCGTTGG | 0.211
129 | AAGTATCA | 0.209
130 | GCGATAGA | 0.00283
131 | ACCTGAGG | -0.0879
132 | AAGATTAC | 0.101
133 | CCGCGAAA | -0.0982
134 | CAAAGCTA | 0.185
135 | ACGCCAAA | -0.0683
136 | ACTTAATA | 0.271
137 | AGCCGTGC | -0.216
138 | GGATTGAC | -0.00155
139 | CCACACGG | -0.277
140 | ATGCGGAA | 0.231
141 | GTCGTACA | 0.184
142 | GAGATTTA | 0.0395
143 | CGGCACAG | -0.0198
144 | AACACTAC | 0.181
145 | CACTATGC | 0.136
146 | AGAATCGC | 0.0743
147 | GACGATAA | 0.00917
148 | AGCGGCAT | 0.0383
149 | CTTAATGA | -0.0192
150 | AAATTTAT | 0.228

Row | Sequence | PBM E-score
151 | CCGACTAG | -0.146
152 | TTCACCAA | 0.086
153 | GCATTTCC | 0.0973
154 | GTCCAGGA | -0.0504
155 | AATCACGG | 0.24
156 | GATCTTCC | 0.33
157 | AGTATCAC | 0.0458
158 | ATGAGGAG | -0.192
159 | AGAAGCCA | -0.0283
160 | ATCGATGC | 0.0782
161 | CCCGTCAC | -0.221
162 | AGCATACC | 0.0272
163 | CAGGCATC | 0.00941
164 | CCAAAAGC | -0.0545
165 | AGGATTAT | 0.306
166 | ATCGAACC | -0.0406
167 | ACAACTCG | -0.0646
168 | ACAGTACC | -0.143
169 | CGGATGGA | -0.0883
170 | GCCTTATA | 0.00805
171 | AATGATCT | 0.157
172 | AATATGTG | 0.269
